The IC50 comes from the fitted curve, where viability falls to half of the control; where the fit passes the top or lowest dose, that dose stands as a limit. For AUC the same curve is integrated over the 256-fold range of doses and scaled to a fraction: 1 means no effect, lower means more sensitive. For some assays here: An inferred top dose was derived from the fitted curves, not read from the paper. For some assays here: Drugs with an entry number were screened twice under separate entries, and the two screens often disagree.
Assays:
Assay in all cases: Viability of human cancer cell lines after 72 h of drug (GDSC screen)
RDEA119 = compound: COc1cc(F)c(F)c(Nc2ccc(I)cc2F)c1NS(=O)(=O)C1(C[C@H](O)CO)CC1 [RDEA119]; conditions: top dose 5 µM, top dose inferred
Experimental: (§1)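 Human cancer cell lines in 384-well plates, medium with 10% serum, drug for 72 h over a 256-fold dose range (nine 2-fold or five 4-fold steps up to the top dose). Adherent lines were fixed and stained with the nucleic acid dye Syto60, suspension lines read with resazurin; signal relative to control wells, capped at 0 and 100%. One two-parameter sigmoid per drug and line, fitted in a mixed model over all curves with the slope shared within a line.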

5-Fluorouracil = compound: O=c1[nH]cc(F)c(=O)[nH]1 [5-Fluorouracil]; conditions: top dose 32 µM; top dose inferred
Experimental: as §1

QS11 = compound: OC[C@H](Cc1ccccc1)Nc1nc(Oc2ccc3c(c2)CCC3)nc2c1ncn2Cc1ccc(-c2ccccc2)cc1 [QS11]; conditions: top dose 10.24 µM
Experimental: as §1

JNK-9L = compound: Fc1cc(-c2ccnc(Nc3ccc(-n4cnc(N5CCOCC5)n4)cc3)n2)cc(N2CCOCC2)c1 [JNK-9L]; conditions: top dose 5.12 µM; top dose inferred
Experimental: as §1

AC220 = compound: CC(C)(C)c1cc(NC(=O)Nc2ccc(-c3cn4c(n3)sc3cc(OCCN5CCOCC5)ccc34)cc2)no1 [AC220]; conditions: top dose 1.024 µM; top dose inferred
Experimental: as §1

OSU-03012 = compound: NCC(=O)Nc1ccc(-n2nc(C(F)(F)F)cc2-c2ccc3c(ccc4ccccc43)c2)cc1 [OSU-03012]; conditions: top dose 16 µM; top dose inferred
Experimental: as §1

CUDC-101 = compound: C#Cc1cccc(Nc2ncnc3cc(OC)c(OCCCCCCC(=O)NO)cc23)c1 [CUDC-101]; conditions: top dose 5.12 µM; top dose inferred
Experimental: as §1

Row | Cell Line | AUC (RDEA119; screen: GDSC drug entry 1014) | IC50 (RDEA119; screen: GDSC drug entry 1014) [nM] | AUC (RDEA119; screen: GDSC drug entry 1526) | IC50 (RDEA119; screen: GDSC drug entry 1526) [nM] | AUC (5-Fluorouracil) | IC50 (5-Fluorouracil) [nM] | AUC (QS11) | IC50 (QS11) [nM] | AUC (JNK-9L) | IC50 (JNK-9L) [nM] | AUC (AC220) | IC50 (AC220) [nM] | AUC (OSU-03012) | IC50 (OSU-03012) [nM] | AUC (CUDC-101) | IC50 (CUDC-101) [nM]
1 | P12-ICHIKAWA (T-cell lymphoblastic leukaemia, suspension) | 0.994 | > 5000 | 0.994 | > 5000 | 0.679 | 5540 | 0.847 | 5110 | 0.667 | 826 | 0.978 | > 1020 | 0.516 | 1100 | 0.204 | 56.9
2 | P30-OHK (lymphoblastic leukaemia, suspension) | 0.985 | > 5000 | 0.982 | > 5000 | 0.61 | 3800 | 0.798 | 3960 | 0.523 | 366 | 0.944 | > 1020 | 0.491 | 950 | 0.292 | 93.2
3 | P31-FUJ (acute myeloid leukaemia, suspension) | 0.899 | 3670 | 0.762 | 1410 | 0.97 | > 32000 | 0.995 | > 10200 | 0.851 | 2570 | 0.995 | > 1020 | 0.902 | 12000 | 0.666 | 819
4 | P32-ISH (Burkitt lymphoma, suspension) | 0.994 | > 5000 | 0.988 | > 5000 | 0.588 | 3280 | 0.881 | 6280 | 0.505 | 328 | 0.98 | > 1020 | 0.717 | 3410 | 0.271 | 87.4
5 | PA-1 (ovary, adherent) | 0.988 | > 5000 |  |  | 0.451 | 1520 | 0.92 | 9830 | 0.41 | 192 | 0.99 | > 1020 | 0.646 | 2300 | 0.255 | 77.2
6 | PA-TU-8902 (pancreas, adherent) | 0.629 | 757 | 0.62 | 710 | 0.779 | 15400 | 0.943 | > 10200 | 0.641 | 840 | 0.984 | > 1020 | 0.69 | 3760 | 0.423 | 190
7 | PA-TU-8988T (pancreas, adherent) |  |  | 0.709 | 1220 | 0.864 | 28000 | 0.849 | 7710 | 0.613 | 656 | 0.985 | > 1020 | 0.635 | 2360 | 0.741 | 1570
8 | PANC-02-03 (pancreas, adherent) | 0.474 | 261 | 0.627 | 754 | 0.713 | 9150 | 0.982 | > 10200 | 0.637 | 827 | 0.981 | > 1020 | 0.837 | 13900 | 0.396 | 156
9 | PANC-03-27 (pancreas, adherent) | 0.643 | 753 | 0.758 | 1630 | 0.598 | 3630 | 0.839 | 6360 | 0.478 | 280 | 0.988 | > 1020 | 0.659 | 2680 | 0.593 | 566
10 | PANC-04-03 (pancreas, adherent) | 0.71 | 1780 | 0.625 | 853 | 0.92 | > 32000 | 0.908 | > 10200 | 0.666 | 1230 | 0.951 | > 1020 | 0.786 | 12100 | 0.873 | > 5120
11 | PANC-08-13 (pancreas, adherent) |  |  | 0.978 | > 5000 | 0.856 | > 32000 | 0.982 | > 10200 | 0.345 | 105 | 0.981 | > 1020 | 0.982 | > 16000 | 0.703 | 1410
12 | PANC-10-05 (pancreas, adherent) |  |  | 0.731 | 1740 | 0.696 | 8380 | 0.976 | > 10200 | 0.576 | 549 | 0.962 | > 1020 | 0.757 | 6980 | 0.528 | 390
13 | PC-3 [JPC-3] (lung adenocarcinoma, adherent) | 0.933 | > 5000 | 0.901 | > 5000 | 0.801 | 21800 | 0.963 | > 10200 | 0.56 | 494 | 0.981 | > 1020 | 0.778 | 8780 | 0.613 | 724
14 | PCI-4B (head and neck, adherent) | 0.598 | 572 | 0.685 | 997 | 0.504 | 2050 | 0.919 | > 10200 | 0.557 | 455 | 0.987 | > 1020 | 0.659 | 2700 | 0.442 | 224
15 | PCI-6A (head and neck, adherent) | 0.759 | 1720 | 0.949 | > 5000 | 0.836 | 20600 | 0.886 | > 10200 | 0.546 | 427 | 0.985 | > 1020 | 0.662 | 2780 | 0.269 | 71.6
16 | PCI-15A (head and neck, adherent) | 0.713 | 1250 | 0.8 | 2440 | 0.986 | > 32000 | 0.988 | > 10200 | 0.637 | 769 | 0.975 | > 1020 | 0.772 | 6250 | 0.88 | > 5120
17 | PCI-30 (head and neck, adherent) | 0.946 | > 5000 | 0.894 | > 5000 | 0.976 | > 32000 | 0.984 | > 10200 | 0.983 | > 5120 | 0.981 | > 1020 | 0.901 | > 16000 | 0.906 | > 5120
18 | PCI-38 (head and neck, adherent) |  |  | 0.821 | 2920 | 0.754 | 10900 | 0.987 | > 10200 | 0.498 | 317 | 0.976 | > 1020 | 0.878 | > 16000 | 0.613 | 657
